Source: PubChem BioAssay AID1508624 (National Center for Advancing Translational Sciences (NCATS), 2021)
In all, about 48,000 compounds went through this assay and about 120 (0.25%) were called active. Not shown: some 4% with an inconclusive outcome. Calls follow the shape of the dose curve; as a rule, active = well fitted activation curve with a large enough effect; inconclusive = small, poorly fitted or top-dose-only effect, or another doubt; inactive = no such curve, though single readings can be large or run the other way. This is one part of the list.

assay: Primary qHTS for Identification of Small Molecule Activators of Huntingtin-Antisense Promoter Activity; settings: HEK293 HTT-AS promoter firefly luciferase reporter, 24 h; series mostly up to 57.5 µM; activity change, positive = activation: at the top concentration; also: nearly all actives have a fitted effect of over 55% in size
How it was run: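 HEK293 luciferase promoter-reporter cells (2,500/well) plated 24 h, then compounds added at up to 57.5 uM final for 24 h at 37 °C. Firefly luminescence by Dual-Glo, normalized to vehicle (0%) and zero RLU (-100%).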

Activity change, positive = activation, inactive:
CC(Oc1ccccc1)C(=O)Nc1nnc(S(=O)(=O)N2CCCCCC2)s1 (configuration not stated) -18.6%
Cc1ccccc1C(=O)Nc1cccc(-c2cn3cccnc3n2)c1 -19.2%
Cc1ccc(Oc2nc3c(c(=O)n(Cc4ccccc4Cl)c(=O)n3C)n2C)cc1C -0.702%
COc1ccc(-c2cc3nc(C)c(CCC(=O)Nc4ccc(F)cc4F)c(C)n3n2)c(OC)c1 -20.6%
CCc1ccc(CNC(=O)C(CC)n2nc(C)c3c(C)n(-c4ccccc4)nc3c2=O)cc1 (configuration not stated) -45%
Cc1cc(S(=O)(=O)n2ccnc2C(C)C)cc([N+](=O)[O-])c1C -11.9%
COc1ccc(C2Sc3ccccc3N(CCN(C)C)C(=O)C2OC(C)=O)cc1 (configuration not stated) -8.44%
CCOC(=O)c1[nH]c2ccccc2c1NC(=O)c1ccccc1OC -27.1%
Cc1ccc(CCNC(=O)c2ccc(CNS(=O)(=O)c3ccc(C)cc3)cc2)cc1 -12.4%
Cc1ccc(Cl)cc1N1CCN(C(=O)c2cn(CC(C)C)c(=O)c3c2c2ccccc2n3C)CC1 -30.9%
CCOC(=O)c1nc(Nc2ccc(Cl)cc2)c2c(C)noc2n1 -13.8%
O=C(Nc1cc(C(F)(F)F)ccc1Cl)c1ccc2c(c1)CCN2S(=O)(=O)c1ccccc1 -0.347%
CCOc1ccc(NC(=O)Cn2cc(C(=O)c3ccc(OCC)cc3)c(=O)c3cc4c(cc32)OCCO4)cc1 -3.59%
Cc1ccc(CCNC(=O)c2cc3cc4cc(C)ccc4nc3s2)cc1 23.7%
COc1ccc(NC(=O)N(C(C)C)C2CCN(C(C)=O)CC2)c(OC)c1 -4.84%
COc1ccccc1Cn1c(CNS(=O)(=O)c2ccc(CC(C)C)cc2)nc2cccnc21 -29%
COc1cccc(N2C(=O)C(CC(=O)Nc3ccc(F)cc3)N(CCC3=CCCCC3)C2=O)c1 (configuration not stated) -37.8%
COc1cccc(NC(=O)CN2C(=O)COc3ccc(S(=O)(=O)N4CCCCCC4)cc32)c1 -29.4%
O=C1C2=C(Nc3ccccc3SC2c2ccc(Cl)c(Cl)c2)c2ccccc21 (configuration not stated) -63.2%
CCc1ccc(NC(=O)CC2C(=O)N(c3ccc(C)cc3)C(=O)N2CCc2ccncc2)cc1 (configuration not stated) -18.1%
Nc1c(C(=O)NCc2ccc3c(c2)OCO3)nnn1CC(=O)Nc1ccc(Br)cc1 -12.2%
Cc1cccc(C)c1OCC(=O)N1CCC(c2nc3ccccc3o2)CC1 -19.3%
COc1ccc(NC(=O)CN(C)S(=O)(=O)c2ccc(C(=O)N3CCOCC3)s2)cc1 -15.6%
Cc1cc(SCC(=O)Nc2ccc(Cl)cc2)nc2ccccc12 14.4%
Cc1cccc(NC(=O)CSc2cn(CC(=O)N3CCCC3)c3ccccc23)c1C -23.4%
CC(=O)N1CCCc2cc(S(=O)(=O)N3CCCC(C(=O)NCc4ccccc4)C3)ccc21 (configuration not stated) -28.2%
CCc1ccc(-c2cc(C)no2)cc1S(=O)(=O)Nc1ccc(Cl)cn1 -25.6%
COC(=O)c1ccc(NC(=O)N2CCC(CN3CCc4ccccc4C3)CC2)cc1 -20.5%
CCOc1ccc(C(=O)Nc2ccc(C(=O)OCc3cc(=O)n4nc(CC)sc4n3)cc2)cc1 -6.59%
COc1ccc(NC(=O)CSc2ccc(-c3cccs3)nn2)cc1 -0.977%
COc1ccc(/C=C/C(=O)N2CCC(c3nc4ccccc4o3)CC2)cc1 -9.15%
CCOc1ccc(N(CC)S(=O)(=O)N2CCCC(C(=O)Nc3ccc(NC(C)=O)cc3)C2)cc1 (configuration not stated) -14.9%
CCS(=O)(=O)c1nc(S(=O)(=O)c2ccc(C)cc2)c(NCc2ccc(Cl)cc2)s1 -27.3%
CCOC(=O)c1ccc(NS(=O)(=O)c2cn(C)c(C)n2)cc1 -12%
Cc1ccc(S(=O)(=O)N2CCCc3cc(NC(=O)c4ccc(F)c(F)c4)ccc32)cc1 -24.6%
COc1cccc(C(=O)Nc2cc(-c3ccccc3)nn2-c2ccccc2)c1 -1.04%
CCOc1ccc(-c2c(C)nn3c(-c4ccccc4)c(C(=O)NCCOC)cnc23)cc1OCC -16%
CC(=O)Oc1ccc(C(c2ccc(OC(C)=O)cc2)c2ccccn2)cc1 -40.3%
CCN(C(=O)Cn1c(SCC(=O)NCc2ccccc2)nc2ccccc21)c1cccc(C)c1 -21.6%
O=C(NCc1ccccc1Cl)c1cnc(N2CCCCC2)c2ccccc12 -10.4%
COc1ccc(-c2cc3ccc(O)c(CN4CCN(CCO)CC4)c3oc2=O)cc1OC -13.9%
Cc1cccn2c(Nc3ccc4c(c3)OCCO4)c(-c3ccc(Br)o3)nc12 18.3%
O=C(Nc1cccc(Cl)c1Cl)c1cc2nc(-c3ccc4c(c3)OCO4)cc(C(F)(F)F)n2n1 -13.3% [at 11.5 µM, percent change from vehicle, -100% = no light]
COc1ccc(OC)c(CNC(=O)c2cc(-c3ccc(Cl)s3)nc3ccccc23)c1 -15.7%
COc1cc(-c2nc3n(n2)C(c2ccc(F)cc2)C(C(N)=O)=C(C)N3)cc(OC)c1OC (configuration not stated) -2.21%
Cc1ccc(-n2nc(C(=O)NCCc3cccc(C)c3)c3c4ccccc4n(C)c3c2=O)cc1 9.4%
COc1ccccc1NC(=O)c1oc2ccccc2c1NC(=O)c1ccc(S(=O)(=O)N(C)C)cc1 26.9%
Cc1ccc(CNC(=O)c2cc(C3CC3)nc3c2c(C)nn3-c2cccc(Cl)c2C)cc1 -3.93%
Cc1ccc(NC(=O)c2nc(S(=O)(=O)Cc3cccc(C)c3)ncc2Cl)cc1 -52.1%
CCCN(CCC)C(=O)c1c[nH]c2ccc(S(=O)(=O)Nc3cc(C)cc(C)c3)cc2c1=O -21.1%
COc1cc(OC)c(NC(=O)c2cc3c(s2)-c2ccc(Cl)cc2SC3)cc1Cl 26.4%
Cc1cccc(N2CCN(C(=O)C3CCN(Cc4nc(-c5ccc(Cl)cc5)oc4C)CC3)CC2)c1C -9.24%
Cc1cc(NC(=O)C2CCC(CNS(=O)(=O)c3ccc(Br)s3)CC2)ccc1Br (configuration not stated) -17.1%
N=c1nc(N2CCCCC2)cc(N)n1O
CCc1nn2c(-c3ccco3)ccnc2c1-c1ccccc1 16%
CCOC(=O)c1cc(S(=O)(=O)Nc2ccc(OC(F)(F)F)cc2)[nH]n1 -20.9%
CCC1CN(C(=O)N2CCC(C(=O)NCc3cc(OC)ccc3OC)CC2)c2ccccc2O1 (configuration not stated) -28.5%
Cn1c(C(=O)NCc2ccc(F)cc2)cc2cc(S(=O)(=O)N3CCCCC3)ccc21 -35%
COc1ccc(NC(=O)CSc2nc(-c3ccc(OC)cc3)cc(=O)[nH]2)cc1 11.9%
CC(=O)OCC(=O)Nc1cc(C#N)cc(NC(=O)COC(C)=O)c1Cl -4.09%
COc1ccc(NC(=O)Cn2c(=O)n(Cc3nc(C)no3)c(=O)c3cc4c(cc32)OCO4)cc1 -12.3%
COc1ccc(NC(=O)c2cc3c(=O)n(Cc4cccs4)ccc3nc2C)c(OC)c1 -6.19%
Cc1cc(C)cc(NS(=O)(=O)c2ccc(-c3cc(C)no3)s2)c1 -40.8%
Cc1cc(C)c(NC(=O)C2CCN(C(=O)N3CC(C)Oc4ccc(Cl)cc43)CC2)c(C)c1 (configuration not stated) -27.3%
Cc1ccc(-c2nc3cc(Cl)ccc3o2)cc1NC(=O)c1cc2ccccc2o1 20%
Cc1c(C(=O)N(C)C)sc2c1c(=O)n(-c1ccccc1C(F)(F)F)c(=O)n2Cc1ccccc1C#N -14.6%
CC(C)Cc1nn2c(=O)cc(COC(=O)c3cccc(NC(=O)c4cccs4)c3)nc2s1 1.81%
COc1ccc(-c2nsc(NC(=O)COc3ccccc3OC)n2)cc1 -0.766%
Cc1ccccc1Cn1c(=O)n(CC2CCC(C(=O)N3CCC(C)CC3)CC2)c(=O)c2sccc21 (configuration not stated) -44.1%
COc1ccccc1CNC(=O)CCCn1c(=O)c2ccccc2n(CC(=O)Nc2ccc(C)cc2Cl)c1=O -37.6%
CC(C)c1cnn2c(NCc3ccccc3)cc(NCCCCCCN)nc12 -22.9%
Cc1c(Cl)cccc1NC(=O)c1cc(-c2cccs2)on1 10.5%
CCOC(=O)c1c(C)[nH]c(C)c1S(=O)(=O)N(C)CC(=O)Nc1cccc(Cl)c1C -6.44%
Cc1c(C(=O)N2CCC(C)CC2)c(S(=O)(=O)Nc2cccc(C#N)c2)c(C)n1C -7.25%
Cc1ccc(NCc2cccn2-c2nnc(N3CCC(C(=O)NCc4ccccc4C)CC3)s2)cc1 -25%
COc1ccc(CN2CCCN(CC(=O)Nc3ccc(Br)cc3F)S2(=O)=O)cc1 -5.05%
Cc1ccc(-n2ncc(C(=O)NCc3ccc4c(c3)OCO4)c2C2CCN(C(=O)OC(C)(C)C)CC2)cc1C -40.5%
CCOc1ccc(NC(=O)CC2Nc3cccc4cccc(c34)NC2=O)cc1 (configuration not stated) -21.3%
COc1ccc(C(=O)N2CCCCC2CCN2CCOCC2)cc1 (configuration not stated) -4.96%
CC1=C(c2ccc(C)c(C)c2)S(=O)(=O)N=C1N1CCN(c2cccc(C)c2)C(C)C1 (configuration not stated) -18.8%
CCOC(=O)c1ccc(NC(=O)C2=C(C)C(=O)OC23CCCCCC3)cc1 -25.6%
CC(C)Sc1ncc(Cl)c(C(=O)Nc2nc3ccc(S(C)(=O)=O)cc3s2)n1 -7.45%
Cc1cc(-c2ccc(S(=O)(=O)Nc3cccc(C(F)(F)F)c3)s2)on1 -33.9%
O=C(c1ccccc1Cl)N1CCCC(c2nc3c(nnn3Cc3ccc(F)cc3F)c(=O)[nH]2)C1 (configuration not stated) -23.5%
CN(C(=O)CSc1nc2ccc(NC(=O)COc3ccc(F)cc3)cc2s1)c1ccccc1 -41.5%
Cc1cccc(NC(=O)CSc2ncc3c(n2)-c2cc(Cl)ccc2N(C)S3(=O)=O)c1C -9.15%
CC(C)c1ccc(Nc2cc(C(=O)NCCCN(C)Cc3ccccc3)c3ccccc3n2)cc1 -17.7%
CC(=O)N1CCN(C(=O)C(=O)Nc2c3c(nn2-c2ccc(Cl)cc2)CSC3)CC1 -9.96%
COC(=O)c1ccc(C2c3c(-c4ccc(Br)cc4)n[nH]c3C(=O)N2c2ccc(Cl)cc2)cc1 (configuration not stated) -50.1%
CCOc1ccc2c(c1)c(=O)c(S(=O)(=O)c1ccc(CC)cc1)cn2CC -18.7%
CCc1ccc(OCC(=O)Nc2cc3oc4ccccc4c3cc2OC)c(Br)c1 3.6% [at 11.5 µM, percent change from vehicle, -100% = no light]
CCOc1ccccc1-c1noc(CSc2nnc(-c3ccncc3)n2-c2ccc(F)cc2)n1 -32.4%
